The values below come from PubChem BioAssay (NCI).

SMILES strings stand for the structures. “And” between values parts separate entries of the source, which are not always exact repeats. Equal values may be shown once.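 Interpolation was linear, between the two tested concentrations surrounding the appropriate level; five concentrations were tested over 48 hours in 96-well plates. At the GI50, growth is halved. Definition used: TGI = concentration required for complete inhibition of growth.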

This assay deals with NCI-H322M lung. As to the kind of experiment: growth of human tumour cells (NCI), 48 h.
In the case of `CN(C)CCN1C(=O)c2ccccc2C1(O)c1ccc(Cl)cc1` (configuration not stated), the TGI is over 100 µM. Compound `O=Cc1ccc2c(c1)CC1(C2)Cc2ccc(C=O)cc2C1` came in with a TGI of over 100 µM. Compound `O=C(NN1C(=O)c2ccccc2C1=O)c1ccccc1Nc1ccccc1C(=O)NN1C(=O)c2ccccc2C1=O` returned a TGI of over 100 µM. Same read-out and setting: in the case of `Nc1nc(N)c(-c2ccc(Cl)cc2)c(CCC(=O)Nc2cccc(C(F)(F)F)c2)n1` it was over 100 µM; in that of `CN1CCN(C(=S)N(C)C(=O)c2cccs2)CC1`, over 100 µM; in that of `CNC(=S)NNC1=NCCCCN1`, over 100 µM. `NC(=S)N/N=C(/C(=O)Nc1nc2ccc([N+](=O)[O-])cc2s1)C1C(=O)NC(=S)NC1=O`: the TGI was over 100 µM. `Clc1ccc2nc(CCSCCc3nc4ccc(Cl)cc4[nH]3)[nH]c2c1` had a TGI of 5.21 µM. On the same count and under the same terms, then `C=CCN(N=O)C(=O)N(CCC)CCCCC(NC(C)=O)C(=O)NCc1ccccc1` (configuration not stated), with over 100 µM; and `O=C1c2cccnc2C(=O)c2c1nc1ccccc1c2-c1cncc(-c2c3c(nc4ccccc24)C(=O)c2cccnc2C3=O)c1`, with 1.02 µM; and `O=C1NC(Cc2c[nH]c3ccccc23)C(=O)N2C(c3ccccc3)c3[nH]c4ccccc4c3C[C@@H]12` (some centres not stated), with 81.6 µM. Compound `CC(C)=CCC/C(C)=C/CC/C(=C/COP(=O)(OCc1ccc([N+](=O)[O-])o1)N(C)CCCCCl)C(C)(C)C` (configuration not stated) gave a TGI of 0.0773 µM.

With `CC(=O)Nc1ccc(/C=C/C(=O)c2sc(C(N)=S)nc2C)cc1`, the TGI was over 100 µM.

As for `Nc1ccn([C@@H]2C=C(CO)[C@@H](O)[C@H]2O)c(=O)n1`, the TGI was 500 µM and > 625 µM. As for `CCOC(=O)c1c(Cl)c2c(n1Cc1cc(OC)cc(OC)c1)-c1oncc1CCC2`, the GI50 was 0.48 µM and the TGI was over 100 µM. `NC(=O)Oc1cc(OC(N)=O)cc(N(CCCl)CCCl)c1`: the GI50 is 21.4 µM and the TGI was 65 µM.

`O=C1CCSc2c(cnc3ccccc23)N1` registered a TGI of over 100 µM.

For the compound `C=CC1(c2ccc(Br)cc2)OCCCO1`, the TGI was over 100 µM. The compound `Cc1n[nH]c(=O)n1/N=C/c1cccnc1` gave a TGI of over 100 µM. Same read-out and setting: then `CSC(=N)N1N=C2c3ccccc3CC[C@@H]2[C@@H]1c1ccccc1`, with 35.7 µM. On to `CCNc1nc(N2CC(=O)Nc3cc(OC)ccc32)c2ccccc2n1`, for which the GI50 was 0.000536 µM and the TGI is over 100 µM. Regarding `COc1ccc(Nc2ccnc(NCCCNc3ccnc4cc(Cl)ccc34)n2)cc1`, the GI50 is 1.19 µM and the TGI came to 3.71 µM. `COc1cc(/C=N/NC2=NCCCN2)ccc1O` gave a TGI of over 100 µM. `COc1cc2c3c(c4cc(OC)c(OC)cc4c2cc1OC)[C@H](O)[C@@H]1CCCN1C3`: the TGI stood at 1.04 µM. For `CC1(C)C2CCC13C(=O)C1OC3(C2)C2C(=O)c3c(O)ccc(O)c3C(=O)C12` (configuration not stated), the GI50 was 29.8 µM and the TGI was 98.1 µM. As to `COC(=O)C(=O)C(C(=O)C(=O)Nc1cc([N+](=O)[O-])ccc1[N+](=O)[O-])c1nc2ccc(C(=O)c3ccccc3)cc2[nH]c1=O` (configuration not stated), the TGI was over 100 µM. Take `CCN(CC)CCOc1cc2c(C(=O)OC)c(C)oc2cc1C(C)=O`: the GI50 is 15.8 µM and the TGI amounted to 58.7 µM. With `COc1ccc2c(c1)Cc1c-2c(NN)nc2ccccc12`, the GI50 is 38 µM and the TGI was over 100 µM. Regarding `CN(CCC(=O)O)S(=O)(=O)c1ccccc1`, the TGI is over 100 µM. Still for that read-out and setting: then `O=C(O)C(Br)Cc1ccc2c(c1)OCO2` (configuration not stated), with over 100 µM; and `O=C(O)Cc1[nH]cnc1C(=O)O`, with over 100 µM. Turning to `COc1ccc(NC(C)=O)cc1N1C(=O)/C(=C\c2cc(OC)c(OC)c(OC)c2)S(=O)(=O)C1c1ccccc1` (configuration not stated), the TGI is over 100 µM. On the same count and under the same terms, then `COC(=O)c1c(C(=O)OC)c(C(c2ccccc2)c2ccccc2)n(-c2ccccc2)c1Cl`, with over 10 µM; and `O=C1c2ccccc2C(=O)c2c(O)c(O)cc(O)c21`, with over 100 µM; and `COC(=O)/C(C#N)=C(\Nc1ccccc1)N1CCCCC1`, with over 100 µM.

In turn, `CSc1sc(=S)sc1SC` registered a TGI of over 100 µM.

The compound `O=C(CC(=O)C(F)(F)F)c1csc2ccccc12` returned a TGI of over 100 µM. Compound `CCOC(=O)c1c(NC(=O)c2ccc(OC)cc2)sc2c1CCCC2` displayed a TGI of over 100 µM. Regarding `COc1ccc(/C=C/[N+](=O)[O-])cc1`, the TGI stood at 33.4 µM. `CC(Oc1ccc(Cl)cc1Cl)C(=O)NN1C(=O)CSC1c1ccc(Cl)cc1` (configuration not stated): the TGI is over 100 µM. Take `CC/C(=C(\CC)c1ccc(OCCN(CC)CC)cc1)c1ccc(OCCN(CC)CC)cc1`: the GI50 is 5.54 µM and the TGI is 19.3 µM. For `COc1ccccc1NC(=O)C1=C(C)NC(C)=C(C(=O)Nc2ccccc2OC)C1c1ccccc1OC`, the TGI is over 100 µM.

As for `COc1ccc2c(c1)/C(=C\c1cccc(/C=C3/C(=O)Nc4ccc(OC)cc43)n1)C(=O)N2`, the TGI was found to be 14.3 µM. In turn, `O=C(O)CCSc1nnc(COc2ccc(Cl)cc2)n1-c1ccccc1` returned a TGI of over 100 µM.
